This experiment deals with human ROR1 (hROR1) on the cell surface (human) (UniProt Q01973). The experiment can be described thus: cell-based or functional assay.
Sequence of UniProt Q01973 (Q01973 30-937): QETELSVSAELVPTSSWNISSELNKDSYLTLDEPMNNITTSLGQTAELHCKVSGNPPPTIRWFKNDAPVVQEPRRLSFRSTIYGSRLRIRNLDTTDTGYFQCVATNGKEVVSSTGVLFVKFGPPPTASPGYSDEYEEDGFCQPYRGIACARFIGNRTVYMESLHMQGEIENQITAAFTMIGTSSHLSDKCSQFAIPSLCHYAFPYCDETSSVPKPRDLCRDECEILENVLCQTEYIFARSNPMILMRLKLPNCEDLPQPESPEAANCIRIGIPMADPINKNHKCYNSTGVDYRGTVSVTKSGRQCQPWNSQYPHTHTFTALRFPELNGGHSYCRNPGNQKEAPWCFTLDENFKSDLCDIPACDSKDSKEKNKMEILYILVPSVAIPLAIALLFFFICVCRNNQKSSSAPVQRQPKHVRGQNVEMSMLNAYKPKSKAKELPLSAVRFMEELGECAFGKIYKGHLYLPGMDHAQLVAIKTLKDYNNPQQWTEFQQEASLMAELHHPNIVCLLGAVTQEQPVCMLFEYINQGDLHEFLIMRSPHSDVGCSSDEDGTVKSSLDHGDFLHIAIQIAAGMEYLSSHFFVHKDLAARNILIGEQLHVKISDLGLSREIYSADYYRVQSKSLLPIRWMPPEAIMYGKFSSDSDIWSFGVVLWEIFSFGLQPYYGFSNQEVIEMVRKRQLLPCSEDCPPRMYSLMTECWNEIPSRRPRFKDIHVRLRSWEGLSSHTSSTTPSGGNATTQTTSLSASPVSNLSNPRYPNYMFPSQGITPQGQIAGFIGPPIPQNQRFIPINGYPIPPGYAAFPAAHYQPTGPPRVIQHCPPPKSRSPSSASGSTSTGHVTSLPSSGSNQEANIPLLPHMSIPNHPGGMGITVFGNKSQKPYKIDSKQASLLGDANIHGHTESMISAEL

B1: ERR1-324-scFv-G5-PNU (adc252) (Fc fusion)
chain: ELVLTQTPSPVSAAVGGTVTINCQASQSVYGNNELAWYQQKPGQPPKLLIYRASILTSGVPSRFKGSGSGTQFTLTISNVQREDAATYYCLGGYVSQSYRAAFGGGTELEILGGGGSGGGGSGGGGSQSLEESGGGLVQPGESLTLTCTVSGFSLSRNGMTWVRQAPGKGLEWIGIITSSGDKYYATWAKGRFTISKTSSTTVDLKMTSLTTEDTATYFCARGTVSSDIWGPGTLVTISS[left out - human IgG1 Fc with C220S (EU numbers)]LPETGGGGG
modifications: EDA-PNU-159682 derivative on the C-terminal glycine (G5-PNU joined by sortase)
As to B1, the IC50, in vitro cell killing of 697 cells is 6.19 µg/mL.

B2: XBR1-402-scFv-324-scFv-G5-PNU (adc249) (bispecific antibody)
chain 1: SYELTQLPSVSVSLGQTARITCEGNNIGSKAVHWYQQKPGLAPGLLIYDDDERPSGVPDRFSGSNSGDTATLTISGAQAGDEADYYCQVWDSSAYVFGGGTQLTVTGGGGSGGGGSGGGGSQEQQKESGGGLFKPTDTLTLTCTASGFDISSYYMSWVRQAPGNGLEWIGAIGISGNAYYASWAKSRSTITRNTNLNTVTLKMTSLTAADTATYFCARDHPTYGMDLWGPGTLVTVSS[left out - human IgG1 Fc with changes]LPETGGGGG
chain 2: ELVLTQTPSPVSAAVGGTVTINCQASQSVYGNNELAWYQQKPGQPPKLLIYRASILTSGVPSRFKGSGSGTQFTLTISNVQREDAATYYCLGGYVSQSYRAAFGGGTELEILGGGGSGGGGSGGGGSQSLEESGGGLVQPGESLTLTCTVSGFSLSRNGMTWVRQAPGKGLEWIGIITSSGDKYYATWAKGRFTISKTSSTTVDLKMTSLTTEDTATYFCARGTVSSDIWGPGTLVTISS[left out - human IgG1 Fc with changes]LPETGGGGG
modifications: EDA-PNU-159682 derivative on the C-terminal glycine (G5-PNU joined by sortase)
B2 came in with an IC50, in vitro cell killing of 697 cells of 0.236 µg/mL.

B3: scFv-Ig_324_4-2-G3-PNU (adc598) (bispecific antibody)
heavy: QSLEESGGGLVQPGESLTLTCTVSGFSLSRNGMTWVRQAPGKGLEWIGIITSSGDKYYATWAKGRFTISKTSSTTVDLKMTSLTTEDTATYFCARGTVSSDIWGPGTLVTISSGGGGSGGGGSGGGGSGGGGSELVLTQTPSPVSAAVGGTVTINCQASQSVYGNNELAWYQQKPGQPPKLLIYRASILTSGVPSRFKGSGSGTQFTLTISNVQREDAATYYCLGGYVSQSYRAAFGGGTELEILGGGSGGGSGGGSGGGSGGGSQEQQKESGGGLFKPTDTLTLTCTASGFDISSYYMSWVRQAPGNGLEWIGAIGISGNAYYASWAKSRSTITRNTNLNTVTLKMTSLTAADTATYFCARDHPTYGMDLWGPGTLVTVSS[left out - human IgG1 constant region and a few adjoining residues]
light: SYELTQLPSVSVSLGQTARITCEGNNIGSKAVHWYQQKPGLAPGLLIYDDDERPSGVPDRFSGSNSGDTATLTISGAQAGDEADYYCQVWDSSAYVFGGGTQLTVTGQPKAAPSVTLFPPSSEELQANKATLVCLISDFYPGAVTVAWKADSSPVKAGVETTTPSKQSNNKYAASSYLSLTPEQWKSHKSYSCQVTHEGSTVEKTVAPTECSGGGGGSLPETGGG
modifications: EDA-PNU-159682 derivative on the C-terminal glycine (G3-PNU joined by sortase)
Regarding B3, the IC50, in vitro cell killing of hROR1-overexpressing EMT-6 cells stood at 0.9 nM.

B4: ERR1-324-LL-R12-G5-PNU (adc402) (bispecific antibody)
heavy: QSLEESGGGLVQPGESLTLTCTVSGFSLSRNGMTWVRQAPGKGLEWIGIITSSGDKYYATWAKGRFTISKTSSTTVDLKMTSLTTEDTATYFCARGTVSSDIWGPGTLVTISSASTKGPSVFPLAPQEQLVESGGRLVTPGGSLTLSCKASGFDFSAYYMSWVRQAPGKGLEWIATIYPSSGKTYYATWVNGRFTISSDNAQNTVDLQMNSLTAADRATYFCARDSYADDGALFNIWGPGTLVTISS[left out - human IgG1 constant region]LPETGGGGG
light: ELVLTQTPSPVSAAVGGTVTINCQASQSVYGNNELAWYQQKPGQPPKLLIYRASILTSGVPSRFKGSGSGTQFTLTISNVQREDAATYYCLGGYVSQSYRAAFGGGTELEILRTVAAPSVFIFPPELVLTQSPSVSAALGSPAKITCTLSSAHKTDTIDWYQQLQGEAPRYLMQVQSDGSYTKRPGVPDRFSGSSSGADRYLIIPSVQADDEADYYCGADYIGGYVFGGGTQLTVTGQPKAAPSVTLFPPSSEELQANKATLVCLISDFYPGAVTVAWKADSSPVKAGVETTTPSKQSNNKYAASSYLSLTPEQWKSHKSYSCQVTHEGSTVEKTVAPTECSGGGGGSLPETGGGGG
modifications: EDA-PNU-159682 derivative on the C-terminal glycine (G5-PNU joined by sortase)
In the case of B4, the IC50, in vitro cell killing of 697 cells was 1.7 nM.

B5: XBR1-402-scFv-G5-PNU (adc251) (Fc fusion)
chain: SYELTQLPSVSVSLGQTARITCEGNNIGSKAVHWYQQKPGLAPGLLIYDDDERPSGVPDRFSGSNSGDTATLTISGAQAGDEADYYCQVWDSSAYVFGGGTQLTVTGGGGSGGGGSGGGGSQEQQKESGGGLFKPTDTLTLTCTASGFDISSYYMSWVRQAPGNGLEWIGAIGISGNAYYASWAKSRSTITRNTNLNTVTLKMTSLTAADTATYFCARDHPTYGMDLWGPGTLVTVSS[left out - human IgG1 Fc with C220S (EU numbers)]LPETGGGGG
modifications: EDA-PNU-159682 derivative on the C-terminal glycine (G5-PNU joined by sortase)
For the molecule B5, the IC50, in vitro cell killing of 697 cells stood at 0.456 µg/mL.

The values above are taken from patent US20210139579A1.
